Test results: the supplement of paper PMC4967469
Lines with a small IC50 respond at low doses; a fit beyond the top or the lowest dose is shown as a bound at that dose. AUC, from the same fit, is the share of area under the viability curve across the 256-fold dose range: 1 means no effect, lower means more sensitive. For some of these results: Any top dose called inferred is not printed in the source and was worked back from the curve model. For some of these results: Where an entry number is given, a second screen of the drug exists; the two often differ.

Experiments:
Experiment in all cases: Viability of human cancer cell lines after 72 h of drug (GDSC screen)
[1] = compound: Fc1cc(-c2ccnc(Nc3ccc(-n4cnc(N5CCOCC5)n4)cc3)n2)cc(N2CCOCC2)c1 [JNK-9L]; conditions: top dose 5.12 µM; top dose inferred
Protocol: (§1)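 Human cancer cell lines in 384-well plates, medium with 10% serum, drug for 72 h over a 256-fold dose range (nine 2-fold or five 4-fold steps up to the top dose). Adherent lines were fixed and stained with the nucleic acid dye Syto60, suspension lines read with resazurin; signal relative to control wells, capped at 0 and 100%. One two-parameter sigmoid per drug and line, fitted in a mixed model over all curves with the slope shared within a line.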

[2] = compound: COc1cc(F)c(F)c(Nc2ccc(I)cc2F)c1NS(=O)(=O)C1(C[C@H](O)CO)CC1 [RDEA119]; conditions: top dose 5 µM, top dose inferred
Protocol: as §1

[3] = compound: CC(C)(C)c1cc(NC(=O)Nc2ccc(-c3cn4c(n3)sc3cc(OCCN5CCOCC5)ccc34)cc2)no1 [AC220]; conditions: top dose 1.024 µM; top dose inferred
Protocol: as §1

[4] = compound: C#Cc1cccc(Nc2ncnc3cc(OC)c(OCCCCCCC(=O)NO)cc23)c1 [CUDC-101]; conditions: top dose 5.12 µM; top dose inferred
Protocol: as §1

[5] = compound: OC[C@H](Cc1ccccc1)Nc1nc(Oc2ccc3c(c2)CCC3)nc2c1ncn2Cc1ccc(-c2ccccc2)cc1 [QS11]; conditions: top dose 10.24 µM
Protocol: as §1

[6] = compound: O=c1[nH]cc(F)c(=O)[nH]1 [5-Fluorouracil]; conditions: top dose 32 µM; top dose inferred
Protocol: as §1

[7] = compound: NCC(=O)Nc1ccc(-n2nc(C(F)(F)F)cc2-c2ccc3c(ccc4ccccc43)c2)cc1 [OSU-03012]; conditions: top dose 16 µM; top dose inferred
Protocol: as §1

HT-115 (large intestine, adherent)
AUC [1]: 0.764
IC50 [1]: 1700 nM
AUC ([2]; screen: GDSC drug entry 1014): 0.821
IC50 ([2]; screen: GDSC drug entry 1014): 2570 nM
AUC ([2]; screen: GDSC drug entry 1526): 0.86
IC50 ([2]; screen: GDSC drug entry 1526): 3600 nM
AUC [3]: 0.97
IC50 [3]: > 1020 nM
AUC [4]: 0.702
IC50 [4]: 1120 nM
AUC [5]: 0.991
IC50 [5]: > 10200 nM
AUC [6]: 0.98
IC50 [6]: > 32000 nM
AUC [7]: 0.914
IC50 [7]: > 16000 nM

HT-144 (melanoma, adherent)
AUC [1]: 0.367
IC50 [1]: 132 nM
AUC ([2]; screen: GDSC drug entry 1014): 0.289
IC50 ([2]; screen: GDSC drug entry 1014): 73.3 nM
AUC ([2]; screen: GDSC drug entry 1526): 0.478
IC50 ([2]; screen: GDSC drug entry 1526): 270 nM
AUC [3]: 0.975
IC50 [3]: > 1020 nM
AUC [4]: 0.981
IC50 [4]: > 5120 nM
AUC [5]: 0.859
IC50 [5]: 10200 nM
AUC [6]: 0.729
IC50 [6]: 9750 nM
AUC [7]: 0.748
IC50 [7]: 5690 nM

HT-1080 (fibrosarcoma, adherent)
AUC [1]: 0.481
IC50 [1]: 286 nM
AUC ([2]; screen: GDSC drug entry 1014): 0.591
AUC ([2]; screen: GDSC drug entry 1526): 0.743
IC50 ([2]; screen: GDSC drug entry 1526): 1410 nM
AUC [3]: 0.989
IC50 [3]: > 1020 nM
AUC [4]: 0.708
IC50 [4]: 1150 nM
AUC [5]: 0.817
IC50 [5]: 4980 nM
AUC [6]: 0.967
IC50 [6]: > 32000 nM
AUC [7]: 0.543
IC50 [7]: 1290 nM

HT-1197 (bladder, adherent)
AUC [1]: 0.591
IC50 [1]: 597 nM
AUC ([2]; screen: GDSC drug entry 1014): 0.93
IC50 ([2]; screen: GDSC drug entry 1014): > 5000 nM
AUC ([2]; screen: GDSC drug entry 1526): 0.841
IC50 ([2]; screen: GDSC drug entry 1526): 4460 nM
AUC [3]: 0.982
IC50 [3]: > 1020 nM
AUC [4]: 0.791
IC50 [4]: 2780 nM
AUC [5]: 0.975
IC50 [5]: > 10200 nM
AUC [6]: 0.963
IC50 [6]: > 32000 nM
AUC [7]: 0.771
IC50 [7]: 7280 nM

HT-1376 (bladder, adherent)
AUC [1]: 0.62
IC50 [1]: 729 nM
AUC ([2]; screen: GDSC drug entry 1014): 0.808
IC50 ([2]; screen: GDSC drug entry 1014): 3170 nM
AUC ([2]; screen: GDSC drug entry 1526): 0.874
IC50 ([2]; screen: GDSC drug entry 1526): > 5000 nM
AUC [3]: 0.985
IC50 [3]: > 1020 nM
AUC [4]: 0.92
IC50 [4]: > 5120 nM
AUC [5]: 0.882
IC50 [5]: > 10200 nM
AUC [6]: 0.985
IC50 [6]: > 32000 nM
AUC [7]: 0.745
IC50 [7]: 5820 nM

HTC-C3 (thyroid, adherent)
AUC [1]: 0.663
IC50 [1]: 962 nM
AUC ([2]; screen: GDSC drug entry 1526): 0.466
IC50 ([2]; screen: GDSC drug entry 1526): 250 nM
AUC [3]: 0.978
IC50 [3]: > 1020 nM
AUC [4]: 0.688
IC50 [4]: 1150 nM
AUC [5]: 0.948
IC50 [5]: > 10200 nM
AUC [6]: 0.895
IC50 [6]: > 32000 nM
AUC [7]: 0.778
IC50 [7]: 7270 nM

HUTU-80 (digestive system, adherent)
AUC [1]: 0.664
IC50 [1]: 834 nM
AUC ([2]; screen: GDSC drug entry 1014): 0.764
IC50 ([2]; screen: GDSC drug entry 1014): 1530 nM
AUC ([2]; screen: GDSC drug entry 1526): 0.896
IC50 ([2]; screen: GDSC drug entry 1526): 4300 nM
AUC [3]: 0.99
IC50 [3]: > 1020 nM
AUC [4]: 0.374
IC50 [4]: 154 nM
AUC [5]: 0.634
IC50 [5]: 1390 nM
AUC [6]: 0.677
IC50 [6]: 5660 nM
AUC [7]: 0.344
IC50 [7]: 402 nM

Hep 3B2_1-7 (liver, adherent)
AUC [1]: 0.597
IC50 [1]: 589 nM
AUC ([2]; screen: GDSC drug entry 1014): 0.716
IC50 ([2]; screen: GDSC drug entry 1014): 1280 nM
AUC ([2]; screen: GDSC drug entry 1526): 0.78
IC50 ([2]; screen: GDSC drug entry 1526): 2050 nM
AUC [3]: 0.987
IC50 [3]: > 1020 nM
AUC [4]: 0.652
IC50 [4]: 842 nM
AUC [5]: 0.751
IC50 [5]: 3360 nM
AUC [6]: 0.902
IC50 [6]: > 32000 nM
AUC [7]: 0.57
IC50 [7]: 1560 nM

Hs633T (fibrosarcoma, adherent)
AUC [1]: 0.475
IC50 [1]: 277 nM
AUC ([2]; screen: GDSC drug entry 1014): 0.489
IC50 ([2]; screen: GDSC drug entry 1014): 294 nM
AUC ([2]; screen: GDSC drug entry 1526): 0.645
IC50 ([2]; screen: GDSC drug entry 1526): 725 nM
AUC [3]: 0.992
IC50 [3]: > 1020 nM
AUC [4]: 0.48
IC50 [4]: 285 nM
AUC [5]: 0.742
IC50 [5]: 2680 nM
AUC [6]: 0.678
IC50 [6]: 5660 nM
AUC [7]: 0.494
IC50 [7]: 967 nM

Hs683 (glioma, adherent)
AUC [1]: 0.637
IC50 [1]: 768 nM
AUC ([2]; screen: GDSC drug entry 1014): 0.868
IC50 ([2]; screen: GDSC drug entry 1014): 4660 nM
AUC ([2]; screen: GDSC drug entry 1526): 0.916
IC50 ([2]; screen: GDSC drug entry 1526): > 5000 nM
AUC [3]: 0.984
IC50 [3]: > 1020 nM
AUC [4]: 0.87
IC50 [4]: 4850 nM
AUC [5]: 0.903
IC50 [5]: > 10200 nM
AUC [6]: 0.98
IC50 [6]: > 32000 nM
AUC [7]: 0.784
IC50 [7]: 6900 nM

Hs939-T (melanoma, adherent)
AUC [1]: 0.558
IC50 [1]: 468 nM
AUC ([2]; screen: GDSC drug entry 1014): 0.593
IC50 ([2]; screen: GDSC drug entry 1014): 578 nM
AUC ([2]; screen: GDSC drug entry 1526): 0.635
IC50 ([2]; screen: GDSC drug entry 1526): 768 nM
AUC [3]: 0.986
IC50 [3]: > 1020 nM
AUC [4]: 0.747
IC50 [4]: 1780 nM
AUC [5]: 0.908
IC50 [5]: > 10200 nM
AUC [6]: 0.974
IC50 [6]: > 32000 nM
AUC [7]: 0.846
IC50 [7]: 13400 nM

Hs940-T (melanoma, adherent)
AUC [1]: 0.358
IC50 [1]: 119 nM
AUC ([2]; screen: GDSC drug entry 1526): 0.921
IC50 ([2]; screen: GDSC drug entry 1526): > 5000 nM
AUC [3]: 0.949
IC50 [3]: > 1020 nM
AUC [4]: 0.657
IC50 [4]: 961 nM
AUC [5]: 0.914
IC50 [5]: > 10200 nM
AUC [6]: 0.974
IC50 [6]: > 32000 nM
AUC [7]: 0.638
IC50 [7]: 2620 nM

Hs-445 (Hodgkin lymphoma, suspension)
AUC [1]: 0.619
IC50 [1]: 661 nM
AUC ([2]; screen: GDSC drug entry 1526): 0.904
IC50 ([2]; screen: GDSC drug entry 1526): > 5000 nM
AUC [3]: 0.988
IC50 [3]: > 1020 nM
AUC [4]: 0.39
IC50 [4]: 164 nM
AUC [5]: 0.989
IC50 [5]: > 10200 nM
AUC [6]: 0.667
IC50 [6]: 5610 nM
AUC [7]: 0.829
IC50 [7]: 8930 nM

HuCCT1 (biliary tract, adherent)
AUC [1]: 0.573
IC50 [1]: 518 nM
AUC ([2]; screen: GDSC drug entry 1014): 0.638
IC50 ([2]; screen: GDSC drug entry 1014): 786 nM
AUC ([2]; screen: GDSC drug entry 1526): 0.58
IC50 ([2]; screen: GDSC drug entry 1526): 533 nM
AUC [3]: 0.982
IC50 [3]: > 1020 nM
AUC [4]: 0.565
IC50 [4]: 492 nM
AUC [5]: 0.9
IC50 [5]: > 10200 nM
AUC [6]: 0.653
IC50 [6]: 5610 nM
AUC [7]: 0.679
IC50 [7]: 3370 nM

HuH-7 (liver, adherent)
AUC [1]: 0.565
IC50 [1]: 480 nM
AUC ([2]; screen: GDSC drug entry 1014): 0.751
IC50 ([2]; screen: GDSC drug entry 1014): 1650 nM
AUC ([2]; screen: GDSC drug entry 1526): 0.801
IC50 ([2]; screen: GDSC drug entry 1526): 2420 nM
AUC [3]: 0.987
IC50 [3]: > 1020 nM
AUC [4]: 0.525
IC50 [4]: 374 nM
AUC [5]: 0.964
IC50 [5]: > 10200 nM
AUC [6]: 0.983
IC50 [6]: > 32000 nM
AUC [7]: 0.839
IC50 [7]: 10900 nM

HuO9 (osteosarcoma, adherent)
AUC [1]: 0.56
IC50 [1]: 475 nM
AUC ([2]; screen: GDSC drug entry 1014): 0.945
IC50 ([2]; screen: GDSC drug entry 1014): > 5000 nM
AUC ([2]; screen: GDSC drug entry 1526): 0.959
IC50 ([2]; screen: GDSC drug entry 1526): > 5000 nM
AUC [3]: 0.824
IC50 [3]: 700 nM
AUC [4]: 0.768
IC50 [4]: 2130 nM
AUC [5]: 0.984
IC50 [5]: > 10200 nM
AUC [6]: 0.972
IC50 [6]: > 32000 nM
AUC [7]: 0.947
IC50 [7]: > 16000 nM

HuO-3N1 (osteosarcoma, adherent)
AUC [1]: 0.744
IC50 [1]: 2040 nM
AUC ([2]; screen: GDSC drug entry 1014): 0.967
IC50 ([2]; screen: GDSC drug entry 1014): > 5000 nM
AUC ([2]; screen: GDSC drug entry 1526): 0.936
IC50 ([2]; screen: GDSC drug entry 1526): > 5000 nM
AUC [3]: 0.944
IC50 [3]: > 1020 nM
AUC [4]: 0.855
IC50 [4]: > 5120 nM
AUC [5]: 0.982
IC50 [5]: > 10200 nM
AUC [6]: 0.924
IC50 [6]: > 32000 nM
AUC [7]: 0.866
IC50 [7]: > 16000 nM
